Experimental data as given in PubChem BioAssay AID1645882 (National Center for Advancing Translational Sciences (NCATS), 2021).
Screen size: about 16,000 compounds; about 120 (0.75%) were called active. Roughly 4% stayed inconclusive and do not appear here. Calls follow the shape of the dose curve; as a rule, active = well fitted inhibition curve with a large enough effect; inconclusive = small, poorly fitted or top-dose-only effect; inactive = no such curve, though single readings can be large or run the other way. The list shows a part of the results. Where a SMILES comes first, the peptide text is derived from it. The star is where a group is joined. Boc = CC(C)(C)OC(=O)*
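Also: plate controls were DMSO for no effect and ATA control for full effect; nearly all actives have a fitted effect of over 75% in size.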

Each compound was assayed against Rap guanine nucleotide exchange factor 3 (Homo sapiens) (UniProt O95398) (assay: Validation qHTS for antagonist of cAMP-regulated guanine nucleotide exchange factor 3 (EPAC1)). Details: EPAC1 Rap1B-BODIPY-GDP exchange, fluorescence; series mostly up to 150 µM; activity change, negative = inhibition: at the top concentration.
Chain of UniProt O95398 (O95398 whole entry, looked up): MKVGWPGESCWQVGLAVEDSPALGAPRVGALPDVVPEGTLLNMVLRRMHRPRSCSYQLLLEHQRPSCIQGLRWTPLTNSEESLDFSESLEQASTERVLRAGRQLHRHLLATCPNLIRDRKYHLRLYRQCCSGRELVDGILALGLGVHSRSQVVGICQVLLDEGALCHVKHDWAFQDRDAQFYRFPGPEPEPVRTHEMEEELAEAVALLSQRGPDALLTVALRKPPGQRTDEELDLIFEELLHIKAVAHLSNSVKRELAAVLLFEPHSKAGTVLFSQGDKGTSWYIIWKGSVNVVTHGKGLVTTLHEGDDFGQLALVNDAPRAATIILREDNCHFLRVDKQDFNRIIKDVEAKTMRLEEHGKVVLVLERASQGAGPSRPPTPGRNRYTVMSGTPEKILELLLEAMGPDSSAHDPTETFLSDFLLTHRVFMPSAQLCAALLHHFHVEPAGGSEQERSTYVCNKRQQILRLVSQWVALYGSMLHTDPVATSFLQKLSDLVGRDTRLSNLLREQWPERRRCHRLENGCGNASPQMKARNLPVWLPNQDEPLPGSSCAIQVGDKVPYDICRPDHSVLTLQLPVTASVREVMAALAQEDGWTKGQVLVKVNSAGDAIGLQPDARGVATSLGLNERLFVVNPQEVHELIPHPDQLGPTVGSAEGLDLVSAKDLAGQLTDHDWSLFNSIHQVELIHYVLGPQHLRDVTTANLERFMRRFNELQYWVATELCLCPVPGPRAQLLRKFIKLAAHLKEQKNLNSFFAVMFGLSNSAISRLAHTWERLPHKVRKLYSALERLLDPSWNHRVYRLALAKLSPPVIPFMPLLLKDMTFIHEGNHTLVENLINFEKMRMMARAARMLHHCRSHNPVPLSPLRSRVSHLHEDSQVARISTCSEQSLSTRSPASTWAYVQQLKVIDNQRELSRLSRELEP
Procedure, shortened: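 Nucleotide exchange followed as fluorescence loss when BODIPY-GDP leaves Rap1B (480 nm excitation, 540 nm emission), read at 5 min intervals over 30 min. Reaction: 100 nM EPAC1, 250 nM RAP1B-BODIPY-GDP, 50 uM GDP; ATA and DMSO define normalization.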
In the case of `CC(=O)OCCC(C)CCC=C(C)C` (centres undefined), the “activity change, negative = inhibition” value is reported as inactive: 16.3%. In the case of `COc1ccc(F)c(CN2CCC3(CCC(CNC(=O)c4cc(C)nn4C)O3)CC2)c1` (centres undefined), the “activity change, negative = inhibition” value is reported as inactive: 11.7%. With `N[C@H](Cc1c[nH]c2ccccc12)C(=O)O` the “activity change, negative = inhibition” value was inactive: 18.1%. For `COC(=O)[C@H](NC(=O)c1cc(-c2ccccc2)nc2ccccc12)c1ccccc1`, the activity change, negative = inhibition was “inactive”. In the case of `CC(=O)OC1CC[C@@]2(C)C3CC(=O)[C@]4(C)C(C(C)=O)=CCC4C3CC[C@H]2C1` (some centres undefined), the “activity change, negative = inhibition” value is reported as inactive: 2.82%. `CN(C)C(N)=NCCC[C@H](N)C(=O)O` was tested, and the “activity change, negative = inhibition” value was inactive: -12% [at 75.8 µM]. With `COC(=O)C1=C(C#N)NC(C)=C(C(=O)OC(C)C)C1c1cccc([N+](=O)[O-])c1` (centres undefined) the “activity change, negative = inhibition” value was inactive: -11.6%. For `N#Cc1cc2nc(O)c(O)nc2cc1[N+](=O)[O-]`, the activity change, negative = inhibition was “inactive”. For `Nc1ccc(S(=O)(=O)NCc2ccccc2)cc1`, the “activity change, negative = inhibition” value was inactive: 8.96%. For `NC(=O)c1ccccc1-c1nc(-n2ccnc2)c2ccccc2n1`, the “activity change, negative = inhibition” value was inactive: 11.9%. In the case of `COCC(=O)Nc1cc(C(=O)N2CCCCC2c2nccs2)c2c(c1)nc(-c1ccncc1)n2C` (centres undefined), the “activity change, negative = inhibition” value is reported as inactive: 6.53%. In the case of `C[C@@H](CN1CCC(Cc2ccccc2)CC1)[C@@H](O)c1ccc(O)cc1`, the activity change, negative = inhibition is reported as “inactive”. For `CCCCC[C@H](O)CC[C@H]1[C@H](O)CC(=O)[C@@H]1CCCCCCC(=O)O`, the activity change, negative = inhibition was inactive: 7.46% [at 15.3 µM]. For `CC1CC(OC(=O)c2ccccc2O)CC(C)(C)C1` (centres undefined), the activity change, negative = inhibition was “inactive”. In the case of `N[C@@H](CS(=O)O)C(=O)O`, the activity change, negative = inhibition is reported as “inactive”. `COc1ccc(NC(=O)N2CCCC3(CCNCC3)C2)cc1` was tested, and the “activity change, negative = inhibition” value was inactive: 1.98%. With `Cc1cnc(CNc2nc(-c3c(C)noc3C)nc3ccccc23)cn1` the “activity change, negative = inhibition” value was inactive: 3.66%. For `Cc1cc(CNC(=O)c2cnn(-c3ncc4c(n3)-c3ccccc3CC4)c2C2CC2)on1`, the “activity change, negative = inhibition” value was inactive: -19.1%. For `Cc1cccc2c(C(O)c3cn(C)c4ccccc34)c[nH]c12` (centres undefined), the “activity change, negative = inhibition” value was inactive: -24.4%. For `COc1ccc(-c2c(O)c3c(OC)c4c(cc3oc2=O)OC(C)(C)CC4)cc1`, the “activity change, negative = inhibition” value was inactive: 12.9%. In the case of `CCCCC/C=C/C=C1/C(=O)C=C[C@@H]1C/C=C\CCCC(=O)O`, the activity change, negative = inhibition is reported as inactive: 26.3% [at 15.3 µM]. For `Cc1cnc(C)c(-c2cccc3c2OC(CNC(=O)C2(c4ccc(Cl)cc4)CC2)C3)n1` (centres undefined), the “activity change, negative = inhibition” value was inactive: -5.66%. In the case of `CCC(C)[C@H]1COCCS(=O)(=O)N1Cc1ccc(Cl)cc1Cl` (some centres undefined), the “activity change, negative = inhibition” value is reported as inactive: -13.2%. In the case of `Cc1c(C(=O)NCc2ccccc2Cl)sc2ncnc(NCC3CCCO3)c12` (centres undefined), the “activity change, negative = inhibition” value is reported as inactive: 10.9%. In the case of `COc1ccccc1C1CN(CCNC(=O)c2cscn2)Cc2ccccc2O1` (centres undefined), the “activity change, negative = inhibition” value is reported as inactive: -26.1%. With `CS(=O)(=O)N1CCC2(CC1)CN(C(c1ccccc1)c1ccccc1)C2` the “activity change, negative = inhibition” value was inactive: -4.22%. `C#C[C@]1(O)CCC2C3CCC4=C(CCC(=O)C4)C3CC[C@@]21C` (some centres undefined) was tested, and the “activity change, negative = inhibition” value was inactive: -0.219%. With `O=C(O)c1ccccc1C(=O)Nc1ccc(S(=O)(=O)Nc2nccs2)cc1` the “activity change, negative = inhibition” value was inactive: 17.5%. In the case of `CC(C)[C@H](NC(=O)CNC(=O)OC(C)(C)C)C(=O)N[C@H](C=O)C(C)C` (Boc-Gly-Val-Val-aldehyde), the “activity change, negative = inhibition” value is reported as inactive: 17.3% [at 201 µM].
